Laboratory results taken from the supplement of paper PMC12217912.
Some of the results follow. Sequences were assembled here from the parent chain. Inactive controls read about 0.05.

B1: TEV protease; numbered along this chain (parent)
chain: MGESLFKGPRDYNPISSSICHLTNESDGHTTSLYGIGFGPFIITNKHLFRRNNGTLVVQSLHGVFKVKDTTTLQQHLVDGRDMIIIRMPKDFPPFPQKLKFREPQREERICLVTTNFQTKSMSSMVSDTSCTFPSGDGIFWKHWIQTKDGQCGSPLVSTRDGFIVGIHSASNFTNTNNYFTSVPKNFMELLTNQEAQQWVSGWRLNADSVLWGGHKVFMVKPEEPFQPVKEATQL

Variants of: B1
Assay: raw area under fraction-flipped curve 0-4 h after induction (AUC4h, not background-subtracted), DNA-recorder readout of cleavage of the substrate (dimensionless); higher = more cleavage of the substrate by the protease variant
Conditions: temperature: 34 °C; time window: 0-4 h after rhamnose induction
Description: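 In vivo DNA recorder in E. coli TOP10(DE3) ΔrhaA at 34 °C. Each TEVp single-site mutant (parent TEVp 0) is paired with a single-site variant of the 7-mer TEVs (canonical ENLYFQ|S). The substrate sits between flexible linkers in a Bxb1-sfGFP-TEVs-SsrA fusion, so cleavage stabilises Bxb1 and speeds flipping of a recombination array, read by NGS. The value is the raw area under the fraction-flipped curve over 0-4 h after rhamnose induction (AUC4h), with ≥20 reads per time point. It is not background-subtracted; inactive controls average about 0.047.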
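Further: Bxb1 expression induced with 0.2% (w/v) L-rhamnose at OD600 near 0.5, cultures sampled hourly, flipped fraction per protease–substrate barcode pair counted by paired-end Illumina sequencing.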

Variant	area with substrate ENLYAQS	area with substrate ENLYEQS	area with substrate ENLYGQS	area with substrate ENLYHQS	area with substrate ENLYMQS	area with substrate ENLYNQS	area with substrate ENLYPQS	area with substrate ENLYQQS	area with substrate ENLYTQS	area with substrate ENLYVQS	area with substrate ENLYKQS	area with substrate ENLYRQS	area with substrate ENLYSQS	area with substrate ENLYWQS	area with substrate ENLYYQS	area with substrate ENLYDQS	area with substrate ENLYIQS	area with substrate ENLYLQS	area with substrate ENLYCQS
MGESLFKGPRDYNPISSSICHLTNESDGHTTSLYGIGFGPFIITNKHLFRRNNGTLVVQSLHGVFKVKDTTTLQQHLVDGRDMIIIRMPKDFPPFPQKLKFREPQREERICLVTTNFQTKSMSSMVSDTSCTFPSGDGEFWKHWIQTKDGQCGSPLVSTRDGFIVGIHSASNFTNTNNYFTSVPKNFMELLTNQEAQQWVSGWRLNADSVLWGGHKVFMVKPEEPFQPVKEATQL [I139E]	0.074	0.0548	0.0601	0.0559	0.0715	0.0481	0.083	0.0571	0.0763	0.102	–	–	–	–	–	–	–	–	–
MGESLFKGPRDYNPISSSICHLTNESDGHTTSLYGIGFGPFIITNKHLFRRNNGTLVVQSLHGVFKVKDTTTLQQHLVDGRDMIIIRMPKDFPPFPQKLKFREPQREERICLVTTNFQTKSMSSMVSDTSCTFPSGDGIFWKHWIQTKDGQCGSPLVSTRDGFIVGIHSASNFTNTNNYFTSVTKNFMELLTNQEAQQWVSGWRLNADSVLWGGHKVFMVKPEEPFQPVKEATQL [P184T]	0.0659	–	0.0662	0.0716	–	–	0.0766	–	0.0677	–	0.0482	0.0643	0.0635	0.0584	0.0664	–	–	–	–
MGESLFKGPRDYNPISSSICHLTNESDGHTTSLYGIGFGPFIITNKHLFRRNNGTLVVQSLHGVFKVKDTTTLQQHLVDGRDMIIIRMPKDFPPFPQKLKFREPQREERICLVTTNFQTKSMSSMVSDTSCTFPSGDGIFWKHWIQTKDGQCGSPLVSTRDGFIVGIHSASNFTNTNNYFTSVPKNFMELVTNQEAQQWVSGWRLNADSVLWGGHKVFMVKPEEPFQPVKEATQL [L191V]	0.0603	0.0658	0.0658	0.077	0.0811	0.0663	0.0646	0.0604	0.0708	0.11	–	0.0611	–	0.0731	0.0599	0.0502	0.118	–	–
MGESLFKGPRDYNPISSSICHLTNESDGHTTSLYGIGFGPFIITNKHLFRRNNGTLVVQSLHGVFKVKDTTTLQQHLVDGRDMIIIRMPKDFPPFPQKLKFREPQREERICLVTTNFQTKSMSSMVSDTSCTFPSGDGIFWQHWIQTKDGQCGSPLVSTRDGFIVGIHSASNFTNTNNYFTSVPKNFMELLTNQEAQQWVSGWRLNADSVLWGGHKVFMVKPEEPFQPVKEATQL [K142Q]	0.0762	0.0608	–	0.0692	0.0643	–	–	0.0834	–	0.134	0.0589	0.0544	0.0707	0.0873	0.0568	0.0621	0.111	–	–
MGESLFKGPRDYNPISSSICHLTNESDGHTTSLYGIGFGPFIITNKHLFRRNNGTLVVQSLHGVFKVKDTTTLQQHLVDGRDMIIIRMPKDFPPFPQKLKFREPQREERICLVTTNFQTKSMSSMVSDTSCTFPSGDGIFWKHWIQTKDGQCGSPLVSTRDGFIVGIHSASNFTNTNNYFTSVPKNFMELLTNQEAQQWVSGWRLNADSVLWGGHKVFMVKPEEPFQPVKEATQA [L235A]	0.0726	0.0602	0.0381	0.0654	0.0819	0.078	–	0.0624	–	0.0969	0.0444	0.0617	–	–	0.0614	0.0546	0.113	0.0936	–
MGESLFKGPRDYNPISSSICHLTNESDGHTTSLYGIGFGPFIITNKHLFRRNEGTLVVQSLHGVFKVKDTTTLQQHLVDGRDMIIIRMPKDFPPFPQKLKFREPQREERICLVTTNFQTKSMSSMVSDTSCTFPSGDGIFWKHWIQTKDGQCGSPLVSTRDGFIVGIHSASNFTNTNNYFTSVPKNFMELLTNQEAQQWVSGWRLNADSVLWGGHKVFMVKPEEPFQPVKEATQL [N53E]	0.0709	0.0469	–	0.0691	0.0848	0.0689	–	–	–	0.0906	0.0748	0.0656	–	0.0856	–	0.058	0.102	–	–
MGESLFKGPRDYNPISSSICHLTNESDGHTTSLYGIGFGPFIITNKHLFRRNNGTLVVQSLHGVFKVKDTTTLQQHLVDGRDMIIIRMPKDFPPFPQKLKFREPQREERICLVTTNFQTKSMSSMVSDTSCTFPSGDGIFWKHWIQTKDGQCGSPLVSTRDGFIVGIHSASNFTNTNNYFTSVPKNFMELLTNQEAQQWVSGWRLNADSVLWGGHKVFMLKPEEPFQPVKEATQL [V220L]	0.0544	0.0691	0.0773	0.0558	0.0815	0.0685	0.0731	0.0661	–	0.114	0.0675	0.0634	0.0773	0.107	0.0611	0.0597	0.145	–	0.0767
MGESLFKGPRDYNPISSSICHLTNESDGHATSLYGIGFGPFIITNKHLFRRNNGTLVVQSLHGVFKVKDTTTLQQHLVDGRDMIIIRMPKDFPPFPQKLKFREPQREERICLVTTNFQTKSMSSMVSDTSCTFPSGDGIFWKHWIQTKDGQCGSPLVSTRDGFIVGIHSASNFTNTNNYFTSVPKNFMELLTNQEAQQWVSGWRLNADSVLWGGHKVFMVKPEEPFQPVKEATQL [T30A]	0.0622	0.0777	0.0847	0.0626	0.0869	0.0737	0.0629	–	0.0967	0.107	0.0559	0.0527	0.0728	0.0851	0.0854	–	0.115	–	0.0992
MGESLFKGPRDYNPISSSICHLTNESDGHTTSLYGIGFGPFIITNKHLFRRNNGTLVVQSLHGVFKVKDTTTLQQHLVDGRDMIIIRMPKDFPPFPQKLKFREPQREERICLVTTNFQTKSDSSMVSDTSCTFPSGDGIFWKHWIQTKDGQCGSPLVSTRDGFIVGIHSASNFTNTNNYFTSVPKNFMELLTNQEAQQWVSGWRLNADSVLWGGHKVFMVKPEEPFQPVKEATQL [M122D]	0.0674	0.0745	0.0682	0.0595	0.0702	0.0813	0.0783	–	0.0959	0.108	–	0.0658	0.105	0.0666	–	0.0824	0.137	0.0738	0.119
